From the RNAGym collection of RNA variant scans (doi:10.7554/elife.90254) come the findings set out here.

The source gives no read counts; variants with many changes may rest on few reads.

The chains are these.
B1: LINE1-mini (parent)
chain: GGCAGAGCUCAACACAGCGUGGCAAAGUGGCUGUGGCUAGACUGCC

The data set covers variants of B1. Kind of data set: self-cleavage, relative activity (ratio to wild type); higher = more cleavage; in vitro, sequencing; the parent is a self-cleaving ribozyme.
With GGCACAGUUCAACACGGCGUGGCAAAGUGUCUGCGGCUAGACUGCC, the self-cleavage was found to be 0.04.
Then GGCACAGCUCAACACAGCGUGGCCAACUGGCUGUGGCUAGACUGCC, with 0.01.
Turning to GGCACAGCUCUACACGGCGUGGCAAAGUGGCUGUGGCUAGACUGCC, the self-cleavage came out at 0.02.
The figure for GGCACCGCUCAACACAGAGUGGCAAAGUGGCUGUGGCUAGACUGCC is 0.04; for GGCACAGCUCAACCAAGCGUGGCAAAGUGGCUGUGGCUAGACUGCC it is 0.02; for GGCACUGCUCAACACAGCGUCGCAAAGUGGCUGUAGCUGGACUGCC it is 0.06.
Regarding GGCACAGCUCAACUCAGCGUGGCAAAGUGGCUGUCUCUAGACUGCC, the self-cleavage is 0.07.
The figure for GGCACAGCUAAUCACAGCGUGGCAAAGUGGCUCUGCCUAGACUGCC is 0.
Then GGCACAGCUCAACACGGAGUGGCAAAGUGGCGGUGGCUAGACUGCC, with 0.02; and GGCACAGCUCACCACAGCGUGGCAAAGUGGCUGUGGCUAGGCUGCC, with 0.02.
The figure for GGCACAGACCAACACACCGUGGAAAAGUGGCUGUGGCUAGACUGCC is 0.04; for GGCAAAGCUCAACACAGCGCGGCAAAGUGGCUGUAGCUACACUGCC it is 0.09; for GGCACAGCUUUACACAGCGUGGCACAGUGGCUGUUGCUAGAGUGCC it is 0.01.
GGCACAGUUCAACACAGCGUGGCAAAGUGGAUGGAGCAAGACUGCC: the self-cleavage came out at 0.05.
For GGCAAAGCUCAACACAGCGUGGCAAAGUGGCUGUGGCCAGAGUGCC, the self-cleavage was 0.11.
GGCACAGGUCUACACAGCGUGGCAAAGUGGCUGUCGCUAGACUGCC: the self-cleavage was determined as 0.03.
For GGCACAGAUCAACAGAGCGUGGCAAAGUGGCUGUGGCUGGACUGCC, the self-cleavage came to 0.04.
Then GGCAAAGCGCAACACAGCGUGGCAAAGUUGCUGUGGCUAGACUGCC, with 0.34.
On to GGCACAGUUCAACACAGCGUGGCAAAGUGGCUGUGGCUGGACAGCC, for which the self-cleavage worked out at 0.02.
The figure for GGCACUCCUCAAUACAGCGUUGCAAAGUGGCUGUGGCUAGACUGCC is 0.29; for GGCAAAGCUCAACACAGCGGGGCAAAGUGGCUGUGGCUAGAUCGCC it is 0.12.
The figure for GGCAAAGCUCAACACAGCGUGGCAAAGUGGCCCGGGCUAGACUGCC is 0.04; for GGCACAGCUCAACACAGCGUGGCAAAGUGGCUGUGGCUGGACUGCU it is 0.03.
GGCACAGGUCAACACAGCGUGGCAAAGUGGCUGUGGGUAGAAUGCC: the self-cleavage stood at 0.11.
The figure for GGCACAGCUAAACACAGCGUGGCAAAGUGCCUGUGGGUAGAUUGCC is 0.02; for GGCACAGCUCAACACAGCGUGGCUAACUGGCUGUGCCUAGACUGCC it is 0.04.
The figure for GGCACAGCUCAACACAGCGUGGCAGUGUGGCUGUGGCUAGACUGCC is 0.08; for GGCACAGCUCGACACAGCGUGGCAAAGUGGCUGUGGCUAGACUGGC it is 0.
Then GGCACCGUUCAACACAGCGUGGCAAAGUGGCUGUGGCUUGACUGCC, with 0.51; and GGCACAGGUCAACACGGCGUGGCAAAGUGGCUGUGGCUAGACUGCC, with 0.08; and GGCACAGCUCUACACAGCGUGGCUAAGUGGCUGUGGCUAGACUGCC, with 0.02.
For GGCACAGCUCACCACAGCGUGGUAAAGUGGCUGUGGCCAGACUGCC, the self-cleavage was found to be 0.03.
Then GGCACAGCUCACAUCAGCGUGGCAAAGUCGCUGUGGCUAGACUGCC, with 0.02.
The figure for GGCACAGCUCAACCCAGCGUGGCAAAGUGGCUGUGGCUAGACAGCC is 0.04.
Turning to GGCACAGCUCAACUCAGCGUGGCAAAGUGGCUGUGUCUAGACUGCC, the self-cleavage stood at 0.05.
The figure for GGCACAGCUCAACUCAGCGUGGCAAAGUGGCUGUGGCAAGACUGCC is 0.16.
On to GGCACAGUUCCACACAGCGUGGUAAAGUGGCUGUGGCUAGACUGCC, for which the self-cleavage was 0.07.
Then GGCACAGCUCAACACAGCGUGGCAAGGUGGUUGUGGCUAGACUGCC, with 0.03; and GGCACAGCUCAGCACAGCGCGACAAAGUGGCUGUGGCUAGACUGCC, with 0.
Then GGCAAAGCUCAACACAGCGUGGCAAAGUGGCUGGGGCUAGACUGAC, with 0.04.
The figure for GGCACAGGUCCACACAGCGUGGCAAAAUGGCUGUGGCUAGACUGCC is 0.02.
Consider GGCACAGAUCAACACAGCGUGGGCAAGUGGCUGUGGCUAGACUGCC, for which the self-cleavage amounted to 0.26.
The figure for GGCACAGCUCUACACAUCGUGGCAAAUUGGCUAGGGCUAGACUGCC is 0.01.
Then GGCACAGCUCAACACAGCGUGGCCAAGUCGCUGUGGGUAGACUACC, with 0.03.
Turning to GGCACAGCUCAACGGAGCGUGGCAAAGUAGCUGUGGCUAGACUGCC, the self-cleavage was 0.01.
Turning to GGCACAGCUCAACACAGCGUGGCAAAGUGGCUGUGGCUAGUCUGUG, the self-cleavage is 0.03.
The figure for GGCAAAGCUCAACACAGCGUGGCAAAGCGGCUGUGGUUAGACUGCC is 0.01; for GGCACUGCUCAACACAGCGUGGCAAAGUGGCUAUGGCUAGACUGGC it is 0.02; for GGCACUGCUCAACACAGCGUGGCAAUGUGGCUGUGGCUAGACUGCC it is 0.06.
The figure for GGCACGGCUAAAGACAGCCUGGAAAAGUGCCUGUGGCUAGACUGCC is 0; for GGCAAAGCGCCACACAGCGUGGCAAAGUGGCUGUGGCUAGUCUGCC it is 0.01.
Then GGCAAAGCUCAACACAGCGUGGCAAAGUGGCAGUGGCUACACUGCC, with 0.04.
GGCACAGCUCAACACAGCGUGGCCUAGUGGCUGUGGCUACACUGCC: the self-cleavage was 0.01.
The figure for GGCACGGGUCAAAACUGCGUGGCAAAGUGGCUGUGGCUUGACUUCC is 0.02; for GGCACAGAUUAACACAGCGUAGCAAAGUGGCUGUGUCUAGACUGCC it is 0.09.
Regarding GGCACUGCUGAACACAUCGUGGCAAAGUGACUGUGCCUAGACUGCC, the self-cleavage worked out at 0.02.
The figure for GGCACAGCUCAACACAGCGUGGCAGAGCCUCUGUGGCUAGACUGCC is 0.14; for GGCAAAGCUCAACACAGCGAGGAAAAGUGGCUGUGGCUAGACUGCC it is 0.03.
Then GGCACAGCUCCACACAGCCUGUCAAAGCGGCUGUGGCUAGACUGCC, with 0; and GGCACAGACCAACACAGCGUGGCAAAGUGGCUGUUGCUAGACUGCC, with 0.22; and GGCACGGCACAACACAGCGUGGCAAAGUGGCUGUGGCUAGACUGCC, with 0.01.
Regarding GGCACAGCUCGACACACCGUGGCAAAGUGGCUGUCGCUAGACUGCC, the self-cleavage is 0.01.
Then GGCACAGGUCAACACAGCGUGGCAAAGUGGCUGUGACUAGAUUGCC, with 0.1; and GGCAAAGCGCAACACAGCGUGGUAAAGUGGCUAUGGCUAAACUGCC, with 0.13.
Then GGCAAAGCUCAACACAGCGUGGCAAAGUGGCUGCGGCUGGACUGCC, with 0.05; and GGCAAAGCUCAACACAGCGCGGCAAAGUGGCUGUGGCCAGACUGCC, with 0.01.
Then GGCACAGCUCACCACUGCGUGGCAAAGGGGCAGUGGCUAGACUGUC, with 0.02.
For GGCAAAGCUCAACACAGCGUGGCAAAGUGGCGGUGGCUAGACUGCG, the self-cleavage came out at 0.01.
Then GGCACUGCUAAACACAGCCUGGCAAAGUGGGUGUGGCCAGACUGCC, with 0; and GGCAAAGCGCAACACAGCGUGGCAAAGUGGCGGUGGCUAGACCGCC, with 0.
With GGCACUGCGCAACACAGCGUGGCAAAGUGGCUGUGGCUAGACUGCC, the self-cleavage turned out to be 0.35.
In the case of GGCAAAGCUCAACACAGCGUGGCAAAGGGGCUGUGGCUAGACAGCC, the self-cleavage turned out to be 0.11.
For the variant GGCACAGCUCAACACCGCGUGGCAAAGUAGCUGUGGCUAGACUGCC, the self-cleavage is 0.03.
Then GGCACAGCUCAACACGGCGUGGCAAAAUGGCUGUGACUAGACUGCC, with 0.01; and GGCAAAGCUCAACACAGCGUGGCAAAGAGGUUGUGGCUAGACUGUC, with 0.02; and GGCACAGCUCAACGCAGCGUGGCAAAGUGGCUGUGGCUAGACUGCA, with 0.
The figure for GGCACAGGUCAACACAGCGUGGCAAAGUGGCUCUGGAGAGGCUGCC is 0.01.
Then GGCACAGCUCAACACAGCGUGGCAGACUGGCUGUGGCUAGACUGCC, with 0.13.
For GGCACCGGUCAACACAGCGUGGCAAAGUGGCUGUGGCUAGACUGCC, the self-cleavage amounted to 0.06.
Then GGCACAGCUCGCCACAGCGUGGCAAAGUGGCUGUGGCUAGACUGCC, with 0.03.
Then GGCACAGAUCAACACAUCGUGGCAACGUGGCUGUGGCUAGACUGCC, with 0.11.
Then GGCACAGCUUAACACAGCGUGGCAAAGUGGCUGUGGCUCGACUGCC, with 0.03; and GGCACCGCUCAACACUGCGUGGCAAAGUGGCUGUGGCUACACUGCC, with 0.07.
In the case of GGCAAAGCUCAACACAGCGGGGCAUAGUGGCUGUGGCUAGACUGCC, the self-cleavage is 0.15.
Then GGCACAGGUCAAUACAUCGUGGCAAAGUUGCGGUGGCUAGUCUGCC, with 0.1; and GGCACAGCUCUACACAGCGUGGCAAUGUUCCUGUGGCUAGACUGCA, with 0.01; and GGCAAAGCCCAUCACAGACUGGCAAAGUGGCUGUGGCUAGACUGCC, with 0.04.
As for GGCACAGCUCAACCCAGCGUGGCAAAGUGCCUGUUGCUAGACUGCC, the self-cleavage came out at 0.07.
Then GGCACAGCUCAUCACGGCGUGGCAAAGUGGCUGUGGAUAGACUGCC, with 0.11; and GGCACAGCUCCACACAGCGUGGCAAAGUGGCUGGGGCUAGAAUGCC, with 0.01; and GGCACUGCUCAACACAGCGUGGCAAAGUGGCUGUAGCGAGACUGCC, with 0.06.
Then GGCACAGCUCAACACUGCGUGGGAAAGUGGCUGUGGCUAGCCUGCC, with 0.02; and GGCACAGCUCAACGCAGCGUGGCCAACUGGCUGUGGGUAGACUGCC, with 0.03.
Then GGCACAGCUGAACACAGCGUGGCAAAGUGGCUGUGGCUUGACUGAC, with 0.02.
For the variant GGCACAGCUCAACCCAGCGUCGCAAAGUGGCUGUGGCUAGACUGCC, the self-cleavage amounted to 0.03.
For the variant GGCACAGCUCAUCACAGCGUGGCAAAGUGGCUGAGGCUAGCGUGCC, the self-cleavage came out at 0.02.
Then GGCACAGCUGAAGACAGAGUGGCAAAGUGGUUGUGGCUAGACUGCC, with 0.02; and GGCACAGCUCCACACAGCGUGGCAAAGUGGCUGUGCCUAGACUGCC, with 0.01; and GGCACAGUUCAACACAGCGUGGCAAAGCGGCUGUGGCUAGACUGCC, with 0.01.
Then GGCACAGCUCUACACAGCGUGGCAAAGUGGCUGUGUCUAGACUGGC, with 0.02.
GGCAAAGCUCAACACAGCGGGGAAAAGUGGCUGUUGCUAGACUGCC: the self-cleavage turned out to be 0.11.
Consider GGCACAGAUCAACACAGCGUGGCAAAGUGGCUGUGGCUAGACUACC, for which the self-cleavage was 0.05.
Then GGCACAGAUCAACACAGCGUGGCAAAGUGGCUGUGGCUAGACUUCC, with 0.22; and GGCACAGCUCAACUCAGCGGGGCAAAGUGGCUGUGGCUAGACUGCC, with 0.04; and GGCACAGCUAAACACAGUGUGGCAAAGUGGCUGUGGCUAGACCGCC, with 0.02.
Then GGCAAAGCGGAACACAGCGUGGCAAACUGGCUGUGGCUAGACUGCC, with 0.04; and GGCAAAGCUCAACACAGCGUGGCAAAGUGGCUGAAGAUAGCCUGCC, with 0.01; and GGCACCGCUCAACACAGCGUGGCAAAGUGACAGUGUUUAGCCUGCC, with 0.02.
Then GGCACAGCUCAACACAGCGUGGCAAGGUGUCUGUGGAUAGACUGCC, with 0.04; and GGCACAGAACAACACAGCGUGGAAAAGUGGCUGUGGCUAGACUGCC, with 0.08; and GGCACAGCUAAACACAGCGUGGCAAAGCGGCUGUGGCUAGAUUGCC, with 0.02.
For the variant GGCACAGUUCAACAUAGCGUGGCAAAGUGGCUUUGGCUAGACUGCC, the self-cleavage is 0.02.
